Data as given in PubChem BioAssay (NCATS).
This is one part of the list. These are further read-outs of the screen, such as a control signal, another cell line or another target. No call is given for them. The note in brackets gives the kind of curve behind each potency; many fits are weak.

Assay: qHTS drug screen for cell cycle checkpoint inhibitors in PARPi-resistant BRCA-mutant ovarian cancer cell lines. (AID 1963452)
Settings: PEO1/OlaR viability, CellTiter-Glo luminescence, 96 h
Summary of the method: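 PEO1, PEO4 and PEO1/OlaR ovarian cancer cells, 600 per well, exposed 96 h at 37C to a dilution series. Viability read by CellTiter-Glo luminescence, normalized to DMSO and empty wells; activity summarized as Z-AUC.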

[1] = measured here: PEO1 parental viability
Tags give direction and shape of the fitted curve.

Row | Compound | AC50 (measured here: PEO4 viability) | AC50 [1]
1 | Nc1nc(OC(c2ccc(-c3cccc(F)c3)cc2)C(F)(F)F)cc(-c2ccc(C[C@@H](N)C(=O)O)cc2)n1 (stereo partly drawn) | 0.245 µM [rising, full curve] | 
2 | CN1C2CCC1CC(OC(=O)C(CO)c1ccccc1)C2 (stereo not drawn) | 0.0174 µM [falling, full curve, poor fit] | 
3 | Cn1ncc(NC(=O)c2nc(-c3c(F)cccc3F)sc2N)c1N1CC[C@@H](N)[C@H](F)CC1 | 19.5 µM [falling, single point] | 
4 | NS(=O)(=O)NCCNc1nonc1C(=Nc1ccc(F)c(Br)c1)NO | 5.49 µM [falling, partial curve, poor fit] | 
5 | COc1ccc(Cc2ccc(NC(N)=O)cc2)cc1-c1cccc(Cl)c1 |  | 17.4 µM [falling, single point]
6 | CCCCC[C@H](O)C=C[C@H]1[C@H](O)CC(=O)[C@H]1CC=CCCCC(=O)O |  | 17.4 µM [falling, single point]
7 | Cc1[nH]c(/C=C2\C(=O)Nc3ccc(S(=O)(=O)Cc4c(Cl)cccc4Cl)cc32)c(C)c1C(=O)N1CCC[C@@H]1CN1CCCC1 | 24.5 µM [falling, single point] | 
8 | COc1ccc2c(c1)CC[C@@H]1[C@@H]2CC[C@]2(C)[C@@H](NCCCCCCN3C(=O)C=CC3=O)CC[C@@H]12 | 2.75 µM [rising, partial curve, poor fit] | 
9 | CNS(=O)(=O)Nc1nccc(Cc2c(C)c3ccc(Oc4ncccn4)cc3oc2=O)c1F |  | 6.16 µM [falling, partial curve]
10 | Cc1cnc(NC(=O)c2cc(Oc3cnc(C(=O)N(C)C)nc3)c3cc(C)oc3c2)cn1 |  | 0.0219 µM [falling, full curve, poor fit]
11 | CC1(C)SCCN(S(=O)(=O)c2ccc(OCC#CCO)cc2)[C@H]1C(=O)NO | 0.389 µM [falling, partial curve, poor fit] | 
12 | CCCCCN(C)CCC(O)(P(=O)(O)O)P(=O)(O)O |  | 0.138 µM [rising, partial curve, poor fit]
13 | C/C=C/C/C=C/CCC(=O)[C@H]1O[C@H]1C(N)=O | 24.5 µM [falling, single point] | 
14 | O=C(O)[C@H](Cc1c[nH]c2ccccc12)N1C(=O)c2ccccc2C1=O | 24.5 µM [falling, single point] | 
15 | N=C(N)c1ccc2cc(OC(=O)c3ccc(N=C(N)N)cc3)ccc2c1 |  | 27.5 µM [falling, single point]
16 | O=C(Nc1cnccc1Cl)N1CCN(Cc2ccc3c(c2)OC(F)(F)O3)CC1 |  | 19.5 µM [falling, partial curve]
17 | CC#C[C@@H](CC(=O)O)c1ccc(OCc2cccc(-c3ccc(C(F)(F)F)cc3)c2)cc1 | 17.4 µM [falling, partial curve, poor fit] | 
18 | O=C1S/C(=C\c2ccc(OCc3cccc(B(O)O)c3)cc2)C(=O)N1Cc1ccc(F)cc1 |  | 8.71 µM [falling, partial curve, poor fit]
19 | O=C(O)c1ccc(O)c2ncccc12 | 27.5 µM [falling, single point] | 

Row | Compound | AC50 (measured here: PEO4 viability) | AC50 [1]
20 | CN1CC[C@@H](NC(=O)Nc2ccc(C#N)cc2)C[C@@H]1c1nc2ccccc2[nH]1 | 2.19 µM [falling, partial curve] | 
21 | Cc1c(-c2ccc(-c3ccccc3F)cc2)nc2ccc(F)cc2c1C(=O)O |  | 0.049 µM [falling, full curve]
22 | CCNCc1nc2c(N)nc3ccccc3c2n1CC(C)(C)O | 13.8 µM [falling, partial curve] | 
23 | NS(=O)(=O)Oc1ccc2c3c(c(=O)oc2c1)CCCCC3 |  | 19.5 µM [falling, single point]
24 | CCN(CC)CCCC(C)Nc1nc(C)cc(Nc2ccc3nc(C)cc(N)c3c2)n1 (stereo not drawn) |  | 5.49 µM [rising, partial curve, poor fit]
25 | Nc1nc2cc(-c3ccc4ncc(C(=O)N5CCOCC5)n4c3)ccc2o1 | 9.77 µM [falling, partial curve, poor fit] | 
26 | CN1C[C@@H]2c3ccccc3Oc3ccc(Cl)cc3[C@H]2C1 | 17.4 µM [falling, single point] | 
27 | FC(F)(F)c1ccc(CNc2ccc(Cc3c[nH]c4ncc(Cl)cc34)cn2)cn1 |  | 27.5 µM [falling, single point]
28 | OC[C@H]1OC(O)C[C@@H](O)[C@H]1O (stereo partly drawn) | 3.47 µM [falling, partial curve, poor fit] | 
29 | O=C(O)C1=CO[C@@H](O[C@@H]2O[C@H](CO)[C@@H](O)[C@H](O)[C@H]2O)[C@@H]2C(CO)=CC[C@H]12 |  | 0.616 µM [rising, full curve, poor fit]
30 | COC(=O)N(CC(=O)O)Cc1cccc(OCc2nc(-c3ccc(Cl)cc3)oc2C)c1 |  | 21.9 µM [falling, single point]
31 | O=C(CCl)Nc1cccc(NC2=NS(=O)(=O)c3ccccc32)c1 | 24.5 µM [falling, single point] | 
32 | CCCNC(=O)Nc1ccc(Oc2ncnc3cc(OC)c(OC)cc23)cc1Cl |  | 0.195 µM [rising, full curve, poor fit]
33 | Cn1cc(-c2ccc(S(=O)(=O)n3ccc(/C=C/C(=O)Nc4ccccc4N)c3)cc2)cn1 | 0.0098 µM [falling, full curve, poor fit] | 
34 | O=C(NCc1cccc(O)c1)Nc1nc(-c2ccncc2)cs1 | 9.77 µM [falling, partial curve, poor fit] | 
35 | O=c1ncn2nc(Sc3ccc(F)cc3F)ccc2c1-c1c(Cl)cccc1Cl |  | 17.4 µM [falling, partial curve, poor fit]
36 | NC1CCCN(c2c(/C=C3\SC(=O)NC3=O)cccc2-c2ccccc2)C1 (stereo not drawn) |  | 7.76 µM [rising, partial curve, poor fit]
37 | CCCC1(CCC)CCC2(CCN(CCCN(CC)CC)C2)CC1 | 2.19 µM [falling, full curve] | 3.47 µM [falling, full curve]
